{"source": "paper PMC4336329", "about": "(PLoS ONE, 2015)", "note": "The whole screen tested about 310,000 compounds, of which about 2,200 (0.71%) showed an effect of 50% or more. Effects have a minus sign here. The list shows a part of the results.", "data": [{"molecular_target": "human ether-à-go-go-related gene (hERG) potassium channel (human, UniProt Q12809)", "sequence (Q12809 whole entry, looked up)": "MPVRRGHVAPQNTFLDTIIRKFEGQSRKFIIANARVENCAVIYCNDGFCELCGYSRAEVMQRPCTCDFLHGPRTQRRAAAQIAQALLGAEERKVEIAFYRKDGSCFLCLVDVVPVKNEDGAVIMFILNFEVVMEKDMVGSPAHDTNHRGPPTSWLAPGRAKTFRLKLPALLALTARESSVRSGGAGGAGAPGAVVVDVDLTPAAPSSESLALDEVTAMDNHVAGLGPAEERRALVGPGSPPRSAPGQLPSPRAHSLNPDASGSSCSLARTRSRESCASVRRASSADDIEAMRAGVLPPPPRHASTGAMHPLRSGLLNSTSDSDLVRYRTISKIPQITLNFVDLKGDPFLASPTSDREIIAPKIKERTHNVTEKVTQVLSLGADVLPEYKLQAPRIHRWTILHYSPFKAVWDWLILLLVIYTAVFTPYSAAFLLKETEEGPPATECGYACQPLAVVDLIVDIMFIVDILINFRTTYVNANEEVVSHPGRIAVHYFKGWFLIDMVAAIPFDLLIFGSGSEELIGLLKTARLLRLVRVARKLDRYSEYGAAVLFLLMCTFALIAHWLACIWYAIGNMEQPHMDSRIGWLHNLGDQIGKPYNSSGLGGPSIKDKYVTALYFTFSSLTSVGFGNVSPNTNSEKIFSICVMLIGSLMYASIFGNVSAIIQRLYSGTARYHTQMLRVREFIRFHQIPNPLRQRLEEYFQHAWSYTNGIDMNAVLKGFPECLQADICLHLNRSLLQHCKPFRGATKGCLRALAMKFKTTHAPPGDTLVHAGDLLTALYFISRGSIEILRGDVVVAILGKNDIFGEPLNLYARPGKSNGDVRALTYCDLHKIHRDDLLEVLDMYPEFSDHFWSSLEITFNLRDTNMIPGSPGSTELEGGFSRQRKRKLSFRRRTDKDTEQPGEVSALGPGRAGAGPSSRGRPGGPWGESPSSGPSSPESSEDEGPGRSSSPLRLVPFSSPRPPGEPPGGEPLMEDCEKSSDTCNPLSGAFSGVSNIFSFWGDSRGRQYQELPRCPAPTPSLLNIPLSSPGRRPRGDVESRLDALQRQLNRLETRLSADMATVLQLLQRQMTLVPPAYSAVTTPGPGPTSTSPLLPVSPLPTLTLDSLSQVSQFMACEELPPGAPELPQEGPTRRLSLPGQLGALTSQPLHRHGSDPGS", "test": "primary screen, population patch clamp on CHO cells stably expressing hERG", "units": {"hERG current change (%, negative = inhibition) at 1uM": "%"}, "values": [{"smiles": "Cc1ccc(S(=O)(=O)N2CCC(=O)N(C(COCc3ccc(Cl)cc3)Cc3ccccc3)CC2)cc1", "note": "(stereo not shown)", "hERG current change (%, negative = inhibition) at 1uM": 7.88}, {"smiles": "COc1cccc(C2CC(c3cccs3)=NN2C(=O)CSc2nc3ccccc3s2)c1OC", "note": "(stereo not shown)", "hERG current change (%, negative = inhibition) at 1uM": 10.9}, {"smiles": "O=C1NC(=O)N(Cc2ccc(F)cc2)C(=O)/C1=C\\c1ccc(N2CCCC2)cc1", "hERG current change (%, negative = inhibition) at 1uM": 13.7}, {"smiles": "Cc1nc2ccccc2cc1OCc1ccc(Cl)cc1", "hERG current change (%, negative = inhibition) at 1uM": 15.1}, {"smiles": "O=C(CSc1ncnc2nc[nH]c12)Nc1nnc(SCc2ccc(Cl)c(Cl)c2)s1", "hERG current change (%, negative = inhibition) at 1uM": 11.2}, {"smiles": "Cc1ccc(C)c(NC(=O)Cn2cnc3c(oc4ccccc43)c2=O)c1", "hERG current change (%, negative = inhibition) at 1uM": 9.76}, {"smiles": "COc1ccc(NC(=O)c2cc(OC)c(OC)cc2OC)c(S(=O)(=O)N2CCOCC2)c1", "hERG current change (%, negative = inhibition) at 1uM": 3.64}, {"smiles": "CN(C(=O)CSc1nncn1-c1ccccc1)C1CCS(=O)(=O)C1", "note": "(stereo not shown)", "hERG current change (%, negative = inhibition) at 1uM": 6.76}, {"smiles": "CC(=O)N(CC(C)(C)CC=C(C)C)c1ccccc1", "hERG current change (%, negative = inhibition) at 1uM": 13}, {"smiles": "COc1ccc(C(=O)CSc2nnc(CC(=O)Nc3ccccc3OC)n2C)cc1", "hERG current change (%, negative = inhibition) at 1uM": -5.03}, {"smiles": "Cc1cccn2c(=O)c3c(nc12)N1CCCCC1C1(C3)C(=O)N(C)C(=O)N(C)C1=O", "note": "(stereo not shown)", "hERG current change (%, negative = inhibition) at 1uM": 12.6}, {"smiles": "CCN(C(=O)COC(=O)c1cc([N+](=O)[O-])ccc1N1CCOCC1)C1CCCCC1", "hERG current change (%, negative = inhibition) at 1uM": 6.79}, {"smiles": "CC1CN(C(=O)CCN2C(=O)c3ccccc3C2=O)CC(C)O1", "note": "(stereo not shown)", "hERG current change (%, negative = inhibition) at 1uM": 13.9}, {"smiles": "C1CCC2=NCCCN2CC1", "hERG current change (%, negative = inhibition) at 1uM": 7.59}, {"smiles": "NC(=O)c1ccccc1N1CCCCC1", "hERG current change (%, negative = inhibition) at 1uM": 18.3}, {"smiles": "O=C(Nc1ccccc1)C(Cc1cccs1)c1nn[nH]n1", "note": "(stereo not shown)", "hERG current change (%, negative = inhibition) at 1uM": 7.61}, {"smiles": "CCc1nnc(NC(=O)c2ccc(NS(=O)(=O)c3ccccc3)cc2)s1", "hERG current change (%, negative = inhibition) at 1uM": -10.2}, {"smiles": "COC(=O)c1sccc1NC(=O)c1ccccc1", "hERG current change (%, negative = inhibition) at 1uM": 18.5}, {"smiles": "O=C(O)c1nn(CC(=O)N2CCN(c3ccccc3)CC2)c(=O)c2ccccc12", "hERG current change (%, negative = inhibition) at 1uM": 12.8}, {"smiles": "O=C(O)CN1C(=O)C(=O)N(Cc2c(F)cccc2Cl)C1=O", "hERG current change (%, negative = inhibition) at 1uM": 12.3}, {"smiles": "CSCCC(NS(=O)(=O)c1ccccc1F)C(=O)NNC(=O)c1csc(N2CCOCC2)n1", "note": "(stereo not shown)", "hERG current change (%, negative = inhibition) at 1uM": 10.2}, {"smiles": "CCOC(=O)C1=CSC2=NS(=O)(=O)CCN12", "hERG current change (%, negative = inhibition) at 1uM": 9.59}, {"smiles": "Cc1cc(C)nc(SCCS(=O)(=O)Cc2ccc(Cl)cc2)n1", "hERG current change (%, negative = inhibition) at 1uM": 7.47}, {"smiles": "CC12CC(NC(=O)N1CCc1ccccc1)c1cc(Cl)ccc1O2", "note": "(stereo not shown)", "hERG current change (%, negative = inhibition) at 1uM": 13.8}, {"smiles": "CCOC(=O)N1CCC(N(CCOC)C(=O)Nc2ccc(Cl)cc2)CC1", "hERG current change (%, negative = inhibition) at 1uM": -10.4}, {"smiles": "O=C(CSc1nnc(CNc2ccccc2)o1)N1CCN(C(=O)c2ccco2)CC1", "hERG current change (%, negative = inhibition) at 1uM": 9.2}, {"smiles": "CN(C)CCCN(C(=O)c1cccs1)c1nc(-c2ccccc2)cs1", "hERG current change (%, negative = inhibition) at 1uM": -50.7}, {"smiles": "O=C(O)C1CCCN1S(=O)(=O)c1ccc2[nH]c(=O)c(=O)[nH]c2c1", "note": "(stereo not shown)", "hERG current change (%, negative = inhibition) at 1uM": 10.3}, {"smiles": "Cc1ccc(N(CCC#N)C(=O)COC(=O)C2=COCCO2)cc1", "hERG current change (%, negative = inhibition) at 1uM": 10.3}, {"smiles": "COC(=O)c1cc(C(=O)OCC(=O)N(C)c2ccccc2)cc([N+](=O)[O-])c1", "hERG current change (%, negative = inhibition) at 1uM": 4.84}, {"smiles": "COc1ccc(N2CCN(c3oc(-c4ccco4)nc3C#N)CC2)cc1", "hERG current change (%, negative = inhibition) at 1uM": -25.2}, {"smiles": "CCN(CC)CC(C)CNC(=O)CC(C(=O)N1CCc2ccccc21)n1ccnc1", "note": "(stereo not shown)", "hERG current change (%, negative = inhibition) at 1uM": 9.73}, {"smiles": "COc1ccc(C(CC(=O)N2CCCCC2)c2c(OC)cc(OC)c3c(-c4ccccc4)cc(=O)oc23)cc1", "note": "(stereo not shown)", "hERG current change (%, negative = inhibition) at 1uM": 6.91}, {"smiles": "NC(=O)N1c2ccccc2C=Cc2ccccc21", "hERG current change (%, negative = inhibition) at 1uM": 2}, {"smiles": "CCc1ccc(C(C)NC(=O)/C(C#N)=C\\c2cn[nH]c2-c2ccccc2)cc1", "note": "(stereo not shown)", "hERG current change (%, negative = inhibition) at 1uM": 6.15}, {"smiles": "Cc1cc(NC(=O)CSc2nnc(-c3ccc(Cl)s3)o2)no1", "hERG current change (%, negative = inhibition) at 1uM": 5.53}, {"smiles": "Cc1ccc(S(=O)(=O)N2C(=O)CCC2C(=O)N2CCN(C)CC2)cc1", "note": "(stereo not shown)", "hERG current change (%, negative = inhibition) at 1uM": 12}, {"smiles": "Cc1ccc(-c2nc3ccccn3c2NC(=O)c2ccco2)cc1", "hERG current change (%, negative = inhibition) at 1uM": 18.6}, {"smiles": "Cc1ccc(C)c(Cn2nnc3c(=O)[nH]c(C4CCN(C(=O)c5cccs5)CC4)nc32)c1", "hERG current change (%, negative = inhibition) at 1uM": 14.2}, {"smiles": "COc1ccc(N)c2c1C(=O)c1ccccc1C2=O", "hERG current change (%, negative = inhibition) at 1uM": 14.2}, {"smiles": "CC(=O)c1cccc(NC(=O)c2ccc(OCc3c(C)noc3C)cc2)c1", "hERG current change (%, negative = inhibition) at 1uM": 10.4}, {"smiles": "COC(=O)c1cc(OC)c(OC)cc1NC(=O)Cc1cccs1", "hERG current change (%, negative = inhibition) at 1uM": 3.6}, {"smiles": "Nc1ccc(C(=O)N(CCO)CCO)cc1", "hERG current change (%, negative = inhibition) at 1uM": 15.5}]}]}
